The source of these data is US20230051266A1 (ABL BIO, published 2023).

B1: B58(NA)x41B01 (bispecific antibody, human IgG1, lambda)
heavy: EVQLLESGGGLVQPGGSLRLSCAASGFTFSNYDMSWVRQAPGKGLEWVSWIYPSDSSIYYADSVKGRFTISRDNSKNTLYLQMNSLRAEDTAVYYCARGPFANKYRQFDYWGQGTLVTVSSASTKGPSVFPLAPSSKSTSGGTAALGCLVKDYFPEPVTVSWNSGALTSGVHTFPAVLQSSGLYSLSSVVTVPSSSLGTQTYICNVNHKPSNTKVDKKV[in this place human IgG1 Fc with changes]GGGGSGGGGSGGGGSQSVLTQPPSASGTPGRRVTISCSGSSSNIGNNYVTWYQQLPGTAPKLLIYADSHRPSGVPDRFSGSKSGTSASLAISGLRSEDEADYYCATWDYSLSGYVFGCGTKLTVLGGGGSGGGGSGGGGSGGGGSEVQLLESGGGLVQPGGSLRLSCAASGFTFSSYDMSWVRQAPGKCLEWVSWISYSGGSIYYADSVKGRFTISRDNSKNTLYLQMNSLRAEDTAVYYCARDGQRNSMREFDYWGQGTLVTVSS
light: QSVLTQPPSASGTPGQRVTISCSGSSSNIGSNSVSWYQQLPGTAPKLLIYADSKRPSGVPDRFSGSKSGTSASLAISGLRSEDEADYYCGSWDYSLSGYVFGGGTKLTVLGQPKAAPSVTLFPPSSEELQANKATLVCLISDFYPGAVTVAWKADSSPVKAGVETTTPSKQSNNKYAASSYLSLTPEQWKSHRSYSCQVTHEGSTVEKTVAPAECS
notes: IgG1 N297A-scFv; also called B58(NA) x41B01 (1A10)
B2: B58(NA)xAB41 (bispecific antibody, human IgG1, lambda)
heavy: EVQLLESGGGLVQPGGSLRLSCAASGFTFSNYDMSWVRQAPGKGLEWVSWIYPSDSSIYYADSVKGRFTISRDNSKNTLYLQMNSLRAEDTAVYYCARGPFANKYRQFDYWGQGTLVTVSSASTKGPSVFPLAPSSKSTSGGTAALGCLVKDYFPEPVTVSWNSGALTSGVHTFPAVLQSSGLYSLSSVVTVPSSSLGTQTYICNVNHKPSNTKVDKKV[in this place human IgG1 Fc with changes]GGGGSGGGGSGGGGSDIVMTQSPAFLSVTPGEKVTITCRASQTISDYLHWYQQKPDQAPKLLIKYASQSISGIPSRFSGSGSGTDFTFTISSLEAEDAATYYCQDGHSFPPTFGCGTKLEIKRGGGGSGGGGSGGGGSGGGGSQVQLQQSGAEVIKPGASVKLSCKASGYTFSSYWMHWVRQAPGQCLEWIGEINPGNGHTNYNEKFKSRATLTGDTSTSTVYMELSSLRSEDTAVYYCARSFTTARAFAYWGQGTLVTVSS
light: B1 light
notes: IgG1 N297A-scFv (VL-(G4S)4-VH)
B3: B58(NA)x41B02 (bispecific antibody, human IgG1, lambda)
heavy: EVQLLESGGGLVQPGGSLRLSCAASGFTFSNYDMSWVRQAPGKGLEWVSWIYPSDSSIYYADSVKGRFTISRDNSKNTLYLQMNSLRAEDTAVYYCARGPFANKYRQFDYWGQGTLVTVSSASTKGPSVFPLAPSSKSTSGGTAALGCLVKDYFPEPVTVSWNSGALTSGVHTFPAVLQSSGLYSLSSVVTVPSSSLGTQTYICNVNHKPSNTKVDKKV[in this place human IgG1 Fc with changes]GGGGSGGGGSGGGGSQSVLTQPPSASGTPGRRVTISCSGSSSNIGNNYVTWYQQLPGTAPKLLIYADSHRPSGVPDRFSGSKSGTSASLAISGLRSEDEADYYCATWDYSLSGYVFGCGTKLTVLGGGGSGGGGSGGGGSGGGGSEVQLLESGGGLVQPGGSLRLSCAASGFTFSGYDMSWVRQAPGKCLEWVSVIYPDDGNTYYADSVKGRFTISRDNSKNTLYLQMNSLRAEDAAVYYCAKHGGQKPTTKSSSAYGMDGWGQGTLVTVSS
light: B1 light
notes: IgG1 N297A-scFv (VL-(G4S)4-VH); also called B58(NA) x41B02 (1A12)

One experiment has as its target T1, human BCMA on cells (CHOK1-hBCMA; H929 endogenous BCMA) (human, UniProt Q02223 1-184).
T1 construct: Cell-surface BCMA in FACS; also called mammalian expressed BCMA; native antigen
T1 sequence: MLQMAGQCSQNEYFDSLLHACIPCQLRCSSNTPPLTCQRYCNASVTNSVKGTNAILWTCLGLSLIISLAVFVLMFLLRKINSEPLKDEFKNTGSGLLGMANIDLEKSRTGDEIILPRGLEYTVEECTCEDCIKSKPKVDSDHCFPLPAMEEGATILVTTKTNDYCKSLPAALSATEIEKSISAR
Briefly: FACS, 100 nM antibody, CHOK1-hBCMA cells. Here is the method: (§1) To evaluate the antigen binding property, the antibody candidates were analyzed for their bindings to BCMA expressed cells by FACS. Briefly, CHOK1 expressing human BCMA (CHOK1-hBCMA) or H929 expressing endogenous BCMA cells were treated with the 100 nM of indicated antibodies at 4° C. for 1 hr. CHOK1 cells were used for BCMA-negative control. After washing by FACS buffer (1% (w/v) BSA in PBS), cells were incubated with the FTTC-anti-human IgG antibody at 4° C. for 1 hr and then subjected to FACS analysis. As shown in FIGS. 2d-2f, the anti-BCMAx4-1BB antibodies bind to BCMA expressed CHOK1-hBCMA and H929 cell lines but not BCMA negative CHOK1.
For orientation: In flow cytometry, cells or beads pass a laser one at a time.
Consider B1, for which the “quantified FACS signal (name not given)” value came to 662.
As to B2, the “quantified FACS signal (name not given)” value stood at 652.
For B3, the “quantified FACS signal (name not given)” value stood at 644.

A further experiment concerns the target T1, human BCMA on cells (CHOK1-hBCMA; H929 …). Briefly: FACS, 100 nM antibody, H929 cells. Here is the method: as §1
Regarding B1, the “quantified FACS signal (name not given)” value worked out at 45.8.
Still for that read-out and setting: then B2, with 49.8; and B3, with 41.6.
